Data as given in the supplement of paper PMC10126150.
Sequences with one replicate were seen in a single cluster, so their values are uncertain.

Test system: ATP
Assay: switch fluorescence ratio, 500 uM ATP over buffer (Cy3 cluster intensity, sum of 5 cycles each) (fold (ratio)); higher = stronger signal-on switching upon ATP binding; sequences stand for … in TCGTCGGCAGCGTCAGATGTGTATAAGAGACAGTTTTTTTTTTTTTTTTTTTTTTTTT…TC
Details: aptamer strand: ATP DNA aptamer (quencher-CACCTGGGGGAGTATTGCGGAGGAAGG + anchor), 100 nM annealed; ATP concentration: 500 uM; one replicate
In short: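 The fluorescence ratio divides summed target-cycle Cy3 intensity by summed buffer-cycle Cy3 intensity for each cluster and is averaged per switch-domain sequence. Cy3-labelled switching-strand clusters on a modified Illumina MiSeq flow-cell were annealed to 100 nM quencher-labelled ATP aptamer, then imaged in selection buffer and again after 15 min with 500 uM ATP at 22 °C. Five such cycles were run, with NaOH stripping and re-annealing between them, and clusters outside 100-1000 RFU were excluded.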
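Also: ATP exposure 15 min at 22 °C before imaging.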

Sequence	switch fluorescence ratio
TTGCACTTGT	1.14
CCATTAACGT	1.03
AATTGCAACA	1.05
GGTCTACCTC	1
GTTTTTCCGA	1.05
ATAGAGTTAA	1.01
CGGTCGGGCA	1.03
GATAGCAAAT	1.01
TCATAAAGGT	1.06
ATTTATCAAA	1.01
GGTCGAGCCA	0.979
TCGTTATCTA	0.995
GCCCTGCTTG	0.975
AAAGTATCGG	1.01
CTTTTTGGTC	1
CTGTTTATAC	1.95
GACTCCTGCC	1.81
TTGAGGCGTT	1.05
TTAGCCAGAT	1
GAGTGTACGA	1.03
GGAGTAATGT	1.29
TTGTCGATAG	1.1
TATTAGCGCA	1.02
ACATGCATCA	1.05
CGGGGATAAT	1.03
CATTTGTAGA	1.04

Sequence	switch fluorescence ratio
TAGAATCCCT	0.994
AAGCAGACTC	2.09
TGGTTCCTCG	1.07
ACTTGTTCTT	1.03
TTCGGTGTGC	1
TTAGGCCGAA	1.05
TTAGAGGAGC	1.02
TACAACCGGC	1.11
GAAGCCTGAT	1.04
CAGTGTCATC	0.999
CGGACGCTCG	0.971
TGTTGAATGG	0.966
GGTCGGCTCG	0.929
CCACGCCAAT	4.55
TTCCAGCAGG	1.19
TGGCTTTTGA	1.01
TTTTTGGAT	0.989
CGTTTCTAGT	0.979
TTCTCCCGAT	1.1
TGTGTTATCC	1
GCACGCTACT	1.74
GGTAACTAG	0.966
GAATCTACTA	1.05
GATGAATGGT	0.984
TGCAAATCGG	1.03
GGCGGCTTG	0.962

Sequence	switch fluorescence ratio
CGTGGTAGAA	1.02
CTTGATCATG	0.954
TTGTTTCTAC	1.04
TTAGATGGCA	1.27
AATACAGTG	1.01
GCTTCTCTC	1.08
GAATTGTTTC	0.994
CATGCAGTGA	1.02
GAGGAGGTCC	0.99
ACCGTAGGCA	1.03
TTATTTATGG	0.99
TTTCAGAAAA	1.04
CAGGCGGACC	1
GAATGTGCTC	0.952
CGTCCGGACT	1.04
AGTTTGTTCA	0.987
TTTCCGAGTT	1.09
CAGGGTTCTG	0.951
AGTTATTAAG	1.16
AAGTACCTGA	1.32
ACTAGTAGTG	0.981
TCTTATTTCG	1.03
GAATCTGTCT	1.04
GTTATTAT	0.974
TAGATTATTG	1.08
CAATGGGTGC	1.05

Sequence	switch fluorescence ratio
TGGTTCGACG	1.06
GACGCATCGT	1.2
AACGGATACC	1.12
TGATAGTAAT	1.02
GTGAATTCTG	0.987
CGCAGTACCG	1.48
CGGTTAGGTA	0.984
AAGATCATTC	0.997
TAGTGCCCAT	0.987
TGTGCGAGGG	0.991
AGGTGGAATA	1.06
GGATCCGGAT	1.04
GGCCGGCGCA	0.99
ACACGCAGGG	0.964
TTGTCAACGC	1.06
AGCGTCACTT	1.04
GAGTCCCGAT	1.06
CGTTTATAGC	1.01
ACTTATTGCT	0.997
ATGGATCGAC	0.991
TAGACCTTTT	1
GTGAAAAAT	0.96
GCGGGCCCAT	0.966
TTTTATGAC	1.02
ACATTCGGGT	1.04
AGGCACTGCT	1.02

Sequence	switch fluorescence ratio
GCAGCTAGAG	1.72
GGCCCTTTG	0.92
ATTGGAGAGA	1.03
AGAACCACCA	1.12
AACAGGCAGG	1.09
GAAGGCATG	0.973
GTTGAATTC	0.985
ACATAGGATG	0.985
CATACAAGTC	1.04
TGTCCTTTTA	1
CATGGCATTT	0.941
AGAAAGCGAG	1.03
ATGGGCCTGT	0.976
TAGCAAATCG	1.08
GGGTTCCGGA	1.06
TTGTCGGGAA	0.948
ATTGTGTCCG	1.01
GATCCGAGCG	1.09
TCAAGGGCTG	1.08
CGGGGTTATC	1.35
GACGTGTAAG	0.994
GACGTGTTGC	1.05
CGCATGTACA	1.08
ATTGTTGTGC	0.977
TGCCTCACGG	1.04
CTTAGGGTTA	0.982

Sequence	switch fluorescence ratio
ATGTCTGATG	1.01
TGGTATGTCC	1.35
CGCGCCCCCT	2.46
ACGGATGCTC	1.05
CGAATTATGT	1.02
CTATGCTTGG	0.981
TTGACGAAAA	1.73
TAATCCACCA	1.06
GACCTTGAAG	0.979
AAGAGGAGAA	0.972
TTCCTTCACA	1.14
TACGGACCGT	1.04
CAATGTCGCT	0.982
GCGGTCGGCG	1.01
TAGGGACGAG	0.988
ACGTAGACGA	1.11
CTTGGGCGAG	0.997
AGATCTGGAC	1.04
CCTAATGGTA	0.985
GGGCGAAAAG	1.06
TATCCGGTTG	1.01
GCCTCTGCCA	1.63
ACAGGTTAAA	0.995
